Measured values taken from the RNAGym collection of RNA variant scans (doi:10.1073/pnas.2313332121).
Variants at the floor of the assay are shown more often than the library holds them.

B1: TPR 5TU (parent)
chain: GGAUCUUCUCGAUCUAACAAAAAAGACAAAUCUGCCACAAAGCUUGAGAGCAUCUUCGGAUGCAGAGGCGGCAGCCUUCGGUGGCGCGAUAGCGCCAACGUUCUCAACUAUGACACGCAAAACGCGUGCUCCGUUGAAUGGAGUUUAUCAUG

Variants of: B1
Assay: polymerase ribozyme fitness, log enrichment relative to wild type (log ratio); higher = more active; in vitro selection for triplet polymerase activity
Outline: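 To select mutant libraries of each subunit of a heterodimeric triplet polymerase ribozyme, built by PCR and transcribed, each was annealed with a biotinylated primer, partner subunit and triplets, then incubated frozen at −7 °C. Extended constructs were gel-excised, captured on streptavidin beads and amplified by RT-PCR, in one round carried out in triplicate. Illumina sequencing of input and output libraries kept genotypes with ≥10 input reads and ≥1 read per output. Fitness is the base-2 logarithm of genotype enrichment relative to wild-type enrichment, from inverse-variance-weighted replicate averages.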

Polymerase ribozyme fitness (log ratio), -3.64:
GGAUCUUCUCGAUCUAACAAAAAAGACAAAUCUGCCACAAAGCUGGAGAGUAUCUUCGGAUGCAGAGGCGGCAGCCUUCGGUGGCGCGAUAGCGACAACGUUCUCAACUAUGACACGCAAAACGUGUGCUCCGUUGAAUGGAGUUUAUCAUG [U45G C51U C95A C125U]

Polymerase ribozyme fitness (log ratio), -3.99:
GGAUCUUCUCGAUCUAACAAAAAAGACAAAUCUGCCACAAAGCUGGAGAGCAUCUUCGGAUGCAGAGGCGGCAGCCUUCGGUGGCGUGAUAGCGCCAACGCUCUCAACUAUGACACGCAAAACGCGUGCUCCGUUGAAUGGAGUUUAUCAUG [U45G C87U U101C]

Polymerase ribozyme fitness (log ratio), -2.91:
GGAUCUUCUCGAUCUAACAAAAAAGACAAAUCUGCCACAAAGCUGGAGAGCAUCUUCGGAUGCAGAGGCGGCAGCCUUCGGUGGCGCGAUAGCGCCAACGUUCUCAACUAUGAUACGCAAAACGCGUGCUCCGUUGAAUGGAGUUUAUCAUG [U45G C114U]

Polymerase ribozyme fitness (log ratio), -3.51:
GGAUCUUCUCGAUCUAACAAAAAAGACAAAUCUGCCACAAAGCUAGAGAGCAUCUUCGGAUGCAGAGGCGGCAGCCUUCGGUGGCGCGAUAGCGCCAACGUUCUCAACUAUGACACGCAAAACGCUUGCUCCGUUGAAUGGAGUUUAUCAUG [U45A G126U]

Polymerase ribozyme fitness (log ratio), -3.88:
GGAUCUUCUCGAUCUAACAAAAAAGACAAAUCUGCCACAAAGCUAGAGAGCAUCAUCGGAUGCAGAGGCGGCAGCCUUCGGUGGCGCGAUAGUGCCAACGUUCUCAACUAUGACACGCAAAACGCGUGCUCCGUUGAAUGGAGUUUAUCAUG [U45A U55A C93U]

Polymerase ribozyme fitness (log ratio), -3.91:
GGAUCUUCUCGAUCUAACAAAAAAGACAAAUCUGCCACAAAGCUGGCGAGCAUCUUCGGAUGCAGAGGCGGCAGCCUUCGGUGGCGCGAUAGCGCCAACGUUCUCAACUAUGACACGCAAAACGCGUGCUCCGUUGAAUGGGGUUUAUCAUG [U45G A47C A142G]

Polymerase ribozyme fitness (log ratio), ≤ -4.2:
GGAUCUUCUCGAUCUAACAAAAAAGACAAAUCUGCCACAAAGCUCGAGAGCAACUUGGGAUGCAGAGGCGGUAGCCUUCGGUCGAGCGAUAGUGCCAACGUUCUCAACUAUGACACGCAAAACGCGUGCUCCGUUGAAUGGAGUUUAUCAUG [U45C U53A C57G C72U G83C C85A C93U]
GGAUCUUCUCGAUCUAACAAAAAAGACAAAUCUGCCACAAAGCUGGAGAGCAUCUUCGGAUGCAGAGGCGGCAGCAUUCGGUGGCGCGAUAGUGCCAACGUUCUCAACUAUGACACGCGAAACGCGUGCUCCGUUGAAUGGAGUUUAUCAUG [U45G C76A C93U A119G]
GGAUCUUCUCGAUCUAACAAAAAAGACAAAUCUGCCACAAAGCUCGAGACCAUCUUCGGAUGCAGAGGCGGCAGCCUUCGGUGGCGCGAUAGCGCCAACGUCCUCAACUAUGACACGGAAAACGCGUGCUCCGUUGAAUGGAGUUUAUCAUG [U45C G50C U102C C118G]
GGAUCUUCUCGAUCUAACAAAAAAGACAAAUCUGCCACAAAGCUAGAGAGCAUCUUCGGAUGCAGAGGCGGCAGCCUUCGGUGGCGCGAUAGCGCCAACGUUCUCAACUAUGACACGCAAAACGCGUGCUCCACUGAAUGGAGUUUAUCAUG [U45A G133A U134C]
GGAUCUUCUCGAUCUAACAAAAAAGACAAAUCUGCCACAAAGCUCGACAGCAUCUUCGGAUGCAGAGGCGGCAGCCUUCGGUGGCGCGAUAGCGCCAAAGUUCUCAACUAUGACACGCAAAACGCGUGCUCCGUUGAAUGGAAUUUACCAUG [U45C G48C C99A G143A U148C]
GGAUCUUCUCGAUCUAACAAAAAAGACAAAUCUGCCACAAAGCUGGAGAGCAUCUUCGGAUGCAGCGGCGGCAGCAUUCGGUGGCUCGAUAGCGCUAACGUUCUCAACUAUGACACGCAAAACGCGUGCUCCGUUGAAUGGAGUUUAUCAUG [U45G A66C C76A G86U C96U]
GGAUCUUCUCGAUCUAACAAAAAAGACAAAUCUGCCACAAAGCUGGAGAGCAUCUUCCGAUGCAGAGGCGGCAGCCUUCGGUGGCGCGAUAGCGCCAACGUUCUCAAAUAAGACACGCAAAACGCGUGCUCCGUUGAUUGGAGUUUAUCAUG [U45G G58C C108A U111A A138U]
GGAUCUUCUCGAUCUAACAAAAAAGACAAAUCUGCCACAAAGCUGGAGAGCAUCUUCGGAUGCAGAGGCGGCAGUCUUCGGUGGCGCGAUAGCGCCAACGUUGUCAACUAUGACACGGAAAACGCGUGCUCCGUUGAAUGGAGUUUAUCAUG [U45G C75U C103G C118G]
GGAUCUUCUCGAUCUAACAAAAAAGACAAAUCUGCCACAAAGCUCGAGAGCGUCUUCGGAUGCAGAGGCGGCAGCCUUCGGUGGCGCGAUAGCGCCAACGUUCUCAACUAUGACUCGCAAAACGCGUGCUCCGUUGAAUGGAGUUUGUGAUG [U45C A52G A115U A147G C149G]
GGAUCUUCUCGAUCUAACAAAAAAGACAAAUCUGCCACAAAGCUGGAGAGCCUCUCCGGAUGCAGAGGCGGCAGCCUGCGGAGGCGCGAUAGCUCCUACGUUCUCAACUAUGACACGCAAAAGGCGUGCUCCGUUGAAUGGAGUUUAUCAUG [U45G A52C U56C U78G U82A G94U A97U C123G]
GGAUCUUCUCGAUCUAACAAAAAAGACAAAUCUGCCACAAAGCUGGAGAGCAUCUUCGGAUGCAGAGGCAGCAGCCUUCGGUGGCGUGAUAGCGCCAACGUUCUCAACUAUGACACGCAAAACGCGUGCUCCGUUGAAUGGAGGUUAUCAUG [U45G G70A C87U U144G]
GGAUCUUCUCGAUCUAACAAAAAAGACAAAUCUGCCACAAAGCUAGAGAGCAUCUUCGGAUGCAGAGGCGGCAGCCUACGGCGGCGCGAUAGCGCCAACGUUCUCAACUAUGACACGCAAAACGUGUGCUCCGUUGAAAGGAGUUUAUCAUG [U45A U78A U82C C125U U139A]
GGAUCUUCUCGAUCUAACAAAAAAGACAAAUCUGCCACAAAGCUAGAGAGCAUCUUCGGAUGCAGAGGCGGCAGCCUGCGGUGGUGCGAUAGCGCCAACGUUCUCAACUAUGACACGCAAAACGCGUGCUCCGCUGAAUGGAGUUUAUCAUG [U45A U78G C85U U134C]
GGAUCUUCUCGAUCUAACAAAAAAGACAAAUCUGCCACAAAGCUGGAGAGCAUCUUCGGAUGCAGAGGCGGCAGCGUUCGGUGACGCGAUAGCGCCAACGUUCUCAACUAUGACACGCAAAACGCGUGCUGCGUUGAAUGGAGUUUAUCAUG [U45G C76G G84A C131G]
GGAUCUUCUCGAUCUAACAAAAAAGACAAAUCUGCCACAAAGCUAGAGAGCAUCUUCGGAUGCAGAGGCGGCAGCCUUCGGUGGCGCGAGAGGGCCAACGUUCUCAACUAUGACACGCAAAACGCGUGCUCUGUUGAUUGGAGAUUAUCAUG [U45A U90G C93G C132U A138U U144A]
GGAUCUUCUCGAUCUAACAAAAAAGACAAAUCUGCCACAAAGCUGGAGAGCAUAUUCGGAUGCAGAGGCGGCAGCCUUCGGUGGCGGGAUAGCGCCAACGUUCUCAACUAUGACACGCAAUAGGCGUGCUCCGUUGAAUGGAGUUUAUCAUG [U45G C54A C87G A121U C123G]
GGAUCUUCUCGAUCUAACAAAAAAGACAAAUCUGCCACAAAGCUAGAGAGCAUCUUCGGAAGCAGAGGCGGCAGCCUUUGGUGUCGCGAUAGCGCCAACGUUCUCAACUAUGACACGCAAAACGCGUGCUCCGUUGAAUGGAGUUUAUCAUG [U45A U61A C79U G84U]
GGAUCUUCUCGAUCUAACAAAAAAGACAAAUCUGCCACAAAGCUGGAGAUCAUCUUCCGAUGCGGAGGCGGCAGCCUUCGGUGGCGCGAUAGCGCCAACGUUCUCAACUAUGACACGCAAAACGCGUGCUCCGUUGAAUGUAGUUUAUCAUG [U45G G50U G58C A64G G141U]
GGAUCUUCUCGAUCUAACAAAAAAGACAAAUCUGCCACAAAGCUCGAGAGCAUCAUCGGAUGCAGAGGCGGCAGCCUUCGGUCGCGCGAUAGCCCCAACGUUCUCAACAAUGACACGCAAAACGCGUGCUCCGUUGAAUGGAGUUUAUUAUG [U45C U55A G83C G94C U109A C149U]
GGAUCUUCUCGAUCUAACAAAAAAGACAAAUCUGCCACAAAGCUCGAGAGCAUCUUCAGAUGCAGAGGCGGCGGCCUUCGGUGGCGCGAUAGCGCCAACGUUCUCAACUUUGACACGCAAAACGCGUGCUCCGUUGAAUGGGGUUUAUCAUG [U45C G58A A73G A110U A142G]
GGAUCUUCUCGAUCUAACAAAAAAGACAAAUCUGCCACAAAGCUGGAGAGCAUCUUCGGAUGCAGAGGCGGCAGCCUUCGGUGACGCGAUCGCGCCAACGUUCUCAACUAUGACACGCAAAACGCGUGGUCCGUUGAAUAGAGUUUAUCAUG [U45G G84A A91C C129G G140A]
GGAUCUUCUCGAUCUAACAAAAAAGACAAAUCUGCCACAAAGCUGGAGAGCAUCUUCGGAUGCAGAGGCGGCAGCCUUCGGUGGCGUGAUAGCGCCAACGUUCUCAACUAUGACACGCAAAACGCGUGCUCCGUUGAAAGGAGUUUAUCAUG [U45G C87U U139A]
GGAUCUUCUCGAUCUAACAAAAAAGACAAAUCUGCCACAAAGCUGGAGAGCAUCUUCGGAUGCAGAGGCGGCAGCCUUCGGUGGCGCGAUCGCGCCAACGGUCUCAACUAUGACACGCAAAACGCGUGCUCCGUUGAAUGGAGUUUCUCAUG [U45G A91C U101G A147C]
GGAUCUUCUCGAUCUAACAAAAAAGACAAAUCUGCCACAAAGCUGGAGAGCAUCUUCGGAUGCAGAGGCGGCAGCCUUCCGUGGCGCGAUAGCGCCAACGUUCUCGACUAUGACACGCUAUACCCGUGCUCCUUUGAAUGGAGUUUAUCAUG [U45G G80C A106G A119U A121U G124C G133U]
GGAUCUUCUCGAUCUAACAAAAAAGACAAAUCUGCCACAAAGCUGGAGAGCAUCUUCGGAUGCAGAGGCGGCAGCCUUCGGUGGCGGGAUAGCGCCAACGUUCUCAACUAUGACACGCAAAACGCGUGCUCCGUUGAAAGGAGUUUAUCAUG [U45G C87G U139A]
GGAUCUUCUCGAUCUAACAAAAAAGACAAAUCUGCCACAAAGCUGGAGAGCAUCUUCGGAUGCAGAGGCGGCAGCCUUCGGUGGCGCGAUAGCGCCAACGUUCUCAACUAUGACGCGCAAAACGCGUGCUCCGUUGAAUGGAGUUUCUCAUG [U45G A115G A147C]
GGAUCUUCUCGAUCUAACAAAAAAGACAAAUCUGCCACAAAGCUAGAGAGCACUUUGGGAUGCAGAGGCGGCAGCCUUCGGUGCCGCGAUAGCGCCAACGUUCUCAACUAUGACACGCAAAACGCGUGCUCCGUUGAAUGGAGUUUAUCAUG [U45A U53C C54U C57G G84C]
GGAUCUUCUCGAUCUAACAAAAAAGACAAAUCUGCCACAAAGCUGGAGACAAUCUUCGGAUGCAGAGGCGGCUGCCUUCGGUGGCGCGAUAGCGCUAACGUUCUCUACUAGGACACGCAAAACGCGUGCUCCGUUGAAUGGAGUUUAUCAUG [U45G G50C C51A A73U C96U A106U U111G]

Polymerase ribozyme fitness (log ratio), -1.08:
GGAUCUUCUCGAUCUAACAAAAAAGACAAAUCUGCCACAAAGCUCGAGAGCAUCAUCGGAUGCAGAGGCGGCAGCCUUCGGUGGCGCGAUAGCGCCAACGUUCUCAACUAUGACACGCAAAACGCGUGCUCCGUUGAAUGGAGUUUAUCAUG [U45C U55A]

Polymerase ribozyme fitness (log ratio), -3.98:
GGAUCUUCUCGAUCUAACAAAAAAGACAAAUCUGCCACAAAGCUGGAGAGCAUCUUCGGAUGCAGAGGCGGCAGCCUUCGGUGGCGCGAUAGAGUCAACGUUCUCAACUAUGACACGCAAAACGCGUGCUCCGUUGAAUGGAGUUUAUCAUG [U45G C93A C95U]

Polymerase ribozyme fitness (log ratio), -3.86:
GGAUCUUCUCGAUCUAACAAAAAAGACAAAUCUGCCACAAAGCUGGAGAGCAUCUUCGGAUGCAGAGGCGGCAGCCUUCGGUGGCGCGAUAGCGCCAACGUUCUCAACUAUGACACGCAAAACGCGUUCUCCGUUGAAUGGAGUUUAUCAUG [U45G G128U]

Polymerase ribozyme fitness (log ratio), -0.523:
GGAUCUUCUCGAUCUAACAAAAAAGACAAAUCUGCCACAAAGCUGGAGAGCAUCUUCGAAUGCAGAGGCGGCAGCCUUCGGUGGCGCGAUAGCGCCAACGUUCUCAACUAUGACACGCAAAACGCGUGCUCCGUUGAAUGGAGUUUAUCAUG [U45G G59A]
